This is one part of the list. At the low end of the ranking the order means little.

From paper PMC6212790 come the findings set out here.

For the test, the target named is T1, GST-Rok-C97-191 (UniProt O34857).
T1 sequence: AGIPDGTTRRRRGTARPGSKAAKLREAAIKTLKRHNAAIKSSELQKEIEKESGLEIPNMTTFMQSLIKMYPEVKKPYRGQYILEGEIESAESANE
Description: protein binding microarray.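 Also: rank score from −0.5 (least bound) to 0.5 (best bound).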 The following applies: Rok is a gene silencer of Bacillus subtilis; high values mean tight binding; most listed sequences are background and not binding sites; double strand, one strand shown.
GCCGATCC returned a binding signal of -0.185 E-score.

As for ATCTGCTC, the binding signal is -0.194 E-score.

For AAAGTACT, the binding signal was 0.224 E-score.

ACTTGTCC showed a binding signal of 0.00953 E-score.

On to TACAGGCA, for which the binding signal is -0.102 E-score.

For the sequence AACTTCAT, the binding signal was found to be 0.128 E-score.

For the sequence ACATGAGT, the binding signal is -0.0137 E-score.

CCAATTAG came in with a binding signal of -0.111 E-score.

The sequence AGTATCCA yielded a binding signal of 0.0514 E-score.

GACCATCA displayed a binding signal of -0.203 E-score.

Turning to AAAAAGTT, the binding signal stood at 0.203 E-score.

CCTTTCAC gave a binding signal of -0.131 E-score.

In the case of ACTGATAG, the binding signal was found to be 0.0768 E-score.

Sequence AAGCGCCG showed a binding signal of -0.116 E-score.

Consider ATGCGGGA, for which the binding signal worked out at 0.0721 E-score.

As for CTACGAGC, the binding signal is -0.077 E-score.

As for TAAACAAA, the binding signal was 0.0269 E-score.

AACTCATC: the binding signal came to 0.0637 E-score.

The sequence GCGGTACC came in with a binding signal of 0.0121 E-score.

Turning to ACGCGGAA, the binding signal is -0.0676 E-score.

In turn, CGTCTAGC showed a binding signal of -0.0248 E-score.

Sequence AGGCATAG gave a binding signal of -0.0417 E-score.

In turn, CAGTGGTC gave a binding signal of -0.19 E-score.

AGAATTAG gave a binding signal of 0.155 E-score.

As for TAACATGA, the binding signal stood at 0.182 E-score.

The sequence CATATGGA registered a binding signal of 0.0214 E-score.

As to ATGGGCTC, the binding signal was -0.211 E-score.

For the sequence CCTTCGTA, the binding signal was -0.106 E-score.

With AAGAAATC, the binding signal came out at 0.11 E-score.

Turning to GTCGTCTA, the binding signal was -0.0652 E-score.

GGATCATA yielded a binding signal of 0.02 E-score.

AATTTTTA gave a binding signal of 0.167 E-score.

The sequence TAGCACCA returned a binding signal of 0.0273 E-score.

The sequence CAGTTTGA yielded a binding signal of -0.112 E-score.

CTGGTGAA gave a binding signal of -0.119 E-score.

The sequence AGTGCGTC registered a binding signal of -0.0216 E-score.

Take GGAGCGCC: the binding signal was -0.272 E-score.

AAGCTGGT registered a binding signal of -0.116 E-score.

In the case of ATGATGTC, the binding signal was -0.157 E-score.

For the sequence CACTTGTC, the binding signal is -0.0379 E-score.

The sequence AGTTCCCC displayed a binding signal of -0.0551 E-score.

CCACATAA: the binding signal amounted to 0.167 E-score.

ATCGAACA yielded a binding signal of -0.044 E-score.

Turning to CCACCCGG, the binding signal was -0.155 E-score.

As for TATGATCA, the binding signal stood at 0.25 E-score.

For GCACCAGA, the binding signal is -0.154 E-score.

The sequence AATACGAT gave a binding signal of 0.189 E-score.

Regarding ACACCGCT, the binding signal was found to be 0.0322 E-score.

The sequence CGAGTGGA came in with a binding signal of -0.0488 E-score.

Turning to CTCGACGC, the binding signal is -0.2 E-score.

In turn, GAGAGACC had a binding signal of -0.229 E-score.

Consider CAAGTAAG, for which the binding signal came to 0.0719 E-score.

As to CCTAACGA, the binding signal was -0.114 E-score.

For AGGTGACC, the binding signal is -0.276 E-score.

As for TCCTCAAA, the binding signal was -0.0783 E-score.

The sequence ATCTTGAG gave a binding signal of -0.0883 E-score.

Take CTGTCTTA: the binding signal is 0.0549 E-score.

Regarding AAATGGGG, the binding signal is -0.1 E-score.

As to AATAGGGC, the binding signal was -0.119 E-score.

AGCCGGAC displayed a binding signal of -0.0198 E-score.

CCAGGGCG gave a binding signal of -0.33 E-score.

In the case of GTCAAAAA, the binding signal was -0.175 E-score.

Consider AGTGCTGC, for which the binding signal is -0.289 E-score.

The sequence AGAGGTAG came in with a binding signal of 0.182 E-score.

AAGTCTTA came in with a binding signal of 0.0648 E-score.

CACTGACC had a binding signal of -0.0382 E-score.

In turn, AACTCCAC came in with a binding signal of 0.00237 E-score.

Regarding AACGATAC, the binding signal came to 0.075 E-score.

With CCTAGCTA, the binding signal stood at 0.144 E-score.

Take AGCCTAAT: the binding signal was -0.0187 E-score.

ACTCTGTG yielded a binding signal of -0.072 E-score.

On to CCATAATC, for which the binding signal was -0.0741 E-score.

In turn, CGACCCAA had a binding signal of -0.0467 E-score.

Sequence AACAACCC gave a binding signal of 0.0537 E-score.

For the sequence CCGAGGAC, the binding signal is -0.061 E-score.

ATACTTGG yielded a binding signal of 0.0891 E-score.

Regarding AACTGGAC, the binding signal is -0.0284 E-score.

In turn, GACAATGA showed a binding signal of -0.0625 E-score.

On to GCTTCCCC, for which the binding signal is -0.189 E-score.

Turning to CTACCTAG, the binding signal was 0.243 E-score.

As to AAAGTAAG, the binding signal is 0.12 E-score.

GAAGCCAA gave a binding signal of -0.0635 E-score.

As for AGACGATC, the binding signal was -0.168 E-score.

Consider CCTACCAC, for which the binding signal stood at 0.251 E-score.

In turn, GACACCGA registered a binding signal of -0.231 E-score.

Regarding GAAAGAGA, the binding signal was -0.255 E-score.

The sequence CGGGTAAG showed a binding signal of -0.0992 E-score.

In the case of GCGCCTAC, the binding signal is -0.00693 E-score.

In the case of ATAAATAG, the binding signal stood at 0.252 E-score.

On to ATACAAAC, for which the binding signal worked out at 0.371 E-score.

CAGGAGAA registered a binding signal of 0.0314 E-score.

As to TTGACAAA, the binding signal was 0.0348 E-score.

On to AATAGCAG, for which the binding signal was found to be 0.0766 E-score.

As for CAATGAGA, the binding signal is -0.17 E-score.

For the sequence ACCTGGAT, the binding signal was -0.0781 E-score.

As to CAGCTCTC, the binding signal was -0.135 E-score.

Sequence TATGACAA had a binding signal of -0.00238 E-score.

In turn, AGACTAGA gave a binding signal of 0.199 E-score.

In turn, CCTACAAG came in with a binding signal of 0.0527 E-score.

As to GTCCTCGA, the binding signal is -0.0981 E-score.

The sequence CTGTGATA returned a binding signal of 0.197 E-score.

Sequence AACTCCAT showed a binding signal of 0.107 E-score.

The sequence GTCATGAA had a binding signal of -0.0595 E-score.

ATCTTTAG returned a binding signal of 0.0903 E-score.

In turn, GGGCATAC gave a binding signal of -0.0596 E-score.

CTGGACTA: the binding signal was determined as 0.118 E-score.

In turn, CAGCTGCC came in with a binding signal of -0.308 E-score.

Regarding ACATGCGA, the binding signal came to 0.00634 E-score.

AACAGACG came in with a binding signal of -0.0272 E-score.

As for CTACTGAC, the binding signal turned out to be 0.181 E-score.

Consider AACGTCGA, for which the binding signal was determined as 0.0178 E-score.

On to CGAAGAAA, for which the binding signal was determined as 0.193 E-score.

In the case of ACCCCCAT, the binding signal was -0.134 E-score.

As to AACCGACA, the binding signal was -0.091 E-score.

The sequence CAAGCAGG displayed a binding signal of -0.2 E-score.

With ACGATCTA, the binding signal was 0.136 E-score.

For the sequence CAAGGCGG, the binding signal is -0.26 E-score.

With ATAACTCG, the binding signal came to 0.208 E-score.

CAGTTTGC gave a binding signal of -0.134 E-score.

In turn, AAAGGCCT returned a binding signal of -0.284 E-score.

With ATCAGCGG, the binding signal is 0.0188 E-score.

CGGCCTGC registered a binding signal of -0.324 E-score.

On to CATCGAAG, for which the binding signal was -0.149 E-score.

As to CTAGTGGC, the binding signal was -0.0357 E-score.

CATACGGA registered a binding signal of 0.128 E-score.

GACTGCGC registered a binding signal of -0.268 E-score.

In turn, CTCAATGA showed a binding signal of -0.0275 E-score.

The sequence CAAATAAA showed a binding signal of 0.188 E-score.

Turning to CCCAAACA, the binding signal is -0.161 E-score.

Consider GTAGACTA, for which the binding signal stood at 0.29 E-score.

The sequence AGGCGTAA gave a binding signal of -0.123 E-score.

CTGTCGCA gave a binding signal of -0.0246 E-score.

As for GTTTCTCA, the binding signal turned out to be 0.141 E-score.

Regarding GATCGGCA, the binding signal was -0.135 E-score.

With GAACGAAC, the binding signal is -0.117 E-score.

Turning to ATAGTCCG, the binding signal was -0.0735 E-score.

AAGGACAG showed a binding signal of -0.169 E-score.

The sequence ATCCTCCA registered a binding signal of -0.00828 E-score.

As to CGGCGGAC, the binding signal is -0.281 E-score.

Regarding CGTCCACG, the binding signal was -0.161 E-score.

AGCATCCT: the binding signal was -0.0122 E-score.

AATATCCC showed a binding signal of -0.0132 E-score.

As to AAATTGTA, the binding signal amounted to 0.255 E-score.

As for GGCCGGTA, the binding signal came to 0.0437 E-score.

Sequence ACTGCCAC displayed a binding signal of -0.165 E-score.

As to CCCGCGAG, the binding signal is -0.355 E-score.

Sequence CAGTCCAC had a binding signal of -0.234 E-score.

AACATCTC registered a binding signal of -0.0846 E-score.

Regarding GGTTATCA, the binding signal was found to be 0.0988 E-score.

ACATAAAT gave a binding signal of 0.181 E-score.

ACCTGCCG came in with a binding signal of -0.213 E-score.

Turning to CATAGACG, the binding signal was -0.0205 E-score.

For the sequence AACTTTGC, the binding signal worked out at 0.171 E-score.

For the sequence ATGTGATA, the binding signal was determined as 0.253 E-score.

For AAAAGATG, the binding signal was -0.225 E-score.

ACATTGTG returned a binding signal of 0.0481 E-score.

As to ATTGTCAG, the binding signal was -0.0244 E-score.

For ACGTCCAC, the binding signal was -0.225 E-score.

The sequence CGTGTACA had a binding signal of 0.108 E-score.

Sequence AGTGTGTG registered a binding signal of -0.139 E-score.

CGGTGGAG registered a binding signal of -0.0359 E-score.

For the sequence AAAATTAG, the binding signal was 0.192 E-score.

GGGTCGTA yielded a binding signal of -0.0724 E-score.

As for CCATCGCC, the binding signal was -0.187 E-score.

GATCTAAC had a binding signal of 0.0254 E-score.

Take CACTTGAC: the binding signal is -0.137 E-score.

For the sequence CGCTTGAG, the binding signal was -0.0324 E-score.

The sequence CGTTGGAA yielded a binding signal of -0.164 E-score.

CTACCACA came in with a binding signal of 0.343 E-score.

The sequence ATGTAAAG returned a binding signal of 0.164 E-score.

Take GCCTAAAA: the binding signal is -0.115 E-score.

In turn, ACCACTAC gave a binding signal of 0.188 E-score.
